B1: CPEB3 Ribozyme (parent)
chain: UAACAGGGGGCCACAGCAGAAGCGUUCACGUCGCAGCCCCUGUCAGAUUCUGGUGAAUCUGCGAAUUCUGCUGUAUAUCUC

Read counts are not given, so values of variants with three or more changes are uncertain.

Variants of B1 are the subject of this data set. In words: self-cleavage, relative activity (ratio to wild type); higher = more cleavage; in vitro, sequencing. The method in brief:
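CPEB3 self-cleaving ribozyme mutant libraries were made by rounds of error-prone PCR, barcoded, and transcribed in vitro with T7 RNA polymerase for 5 hours at 37°C. Cleavage occurred during transcription and a 15 min DNase I step before EDTA stop. RNAs were reverse transcribed with template switching and Illumina-sequenced, with DNA sequencing mapping barcodes to variants. Relative activity is the variant's cleaved/total read fraction divided by wild type's (minimum 5 reads), averaged across three batches.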
For the variant UAACAGGGGGCUACAGCAGAAGCGUACACGUCGCAGCCCCUGUCUGAUUCUGGAGAAUCUGCGAAUUCUGCUGUAUAUCUC, the self-cleavage worked out at 0.82.

Take UAACAGGGGGCUACAGCAGAAGCGCCCACGUCGCAGCCCUUGUCAGUUCCUGGUGGAUCUGCGAAUUCUGCUGUAUAUCUC: the self-cleavage stood at 0.05. As for UAACAGGGGGCUACAGCAGAAGCGCUCACGUCGCAGCCCCAGUCAGAUUCAGGUGAAACUGCGAAUUCCGCCGUAUAUCUC, the self-cleavage stood at 0.06. The figure for UAACAGGGGGCUACAGCAGAAGCGUUCACGUCGCAGCCCCUGUCAGAAUCUGGUGAGUCUGCGAAUUCUGCUGUAUAUCUC is 0.73; for UAACAGGGGGCUACAGCAGAAGCGUUCACGUCGCAGCCCCAGUCAGAUUCUGGUGAAUCUGCGAAUUCUGCUGUUUACCUC it is 0.1. The figure for UAACAGGGGGCUACAGCAGAAGCGUUCACGUCGCAGCCCCUGGCAGAUUCUGGUGAAUCUGCGAAUACUGCAGUAUAUCUC is 0.06.

For UAACAGGGGGCUAUAGCAGAAGCGUUCACGUCGCAGCCCCUGUCAGAUUCUGGUGAGUCUGCGAAUUACGCUGCAUAUCUC, the self-cleavage turned out to be 0.69.

UAACAGGGGGCUACAGCAGAAGCGAUCACGUCGCAGCCCCUGUCAGAUUCUGAUGAAUCUGCGAAUACUGCUGUAUAUCUC: the self-cleavage came out at 0.1. The figure for UAACAGGGGGCUACAGCAGAAGCGCUCACGUCGCAGCCCCUGUCAGACUCUGGCGAAUCCGCGAAUUCUGCCGUAUAUCUC is 0.06; for UAACAGGGGGCUACAGCAGAAGCGUUCACGUCGCAGCCCCUGUCAGAUUCUGGUGGAUCUGCGAAUGUCGCUGUAUAUCUC it is 0.22.

UAACAGGGGGCUACAGCACAAGCGUUCACGUCACAGCCCCUAAUAGAUUCUGGUGUAUCUGCGAAUUCUGCUGUAUAUCUC: the self-cleavage stood at 0.05. To UAACAGGGGGCUACAGCAGAAGCGUUCACAUCGCAGCCCCUGUCGGAUUCUGGUGAAUCUGCGAAUUCUGCUGUAUUUCUC belongs 0.07. For UAACAGGGGGCUAAAGCAGAAGCGUUCACGUCGCAGCCCCCGUCAGAUUCCGGUGAAUCUGCGAAUUCUGCCGUAUAUCUC, the self-cleavage was found to be 1.29. To UAACAGGGGGCUACAUCAGAAGCGUUCACGUCGCAGCCCCUGUCAGAUUCUGGUGAAUCCGCGAAUUCAGCUGUAUAUCUC belongs 0.13; to UAACAGGGGGCUACAGCAGAAGCGUUCACGUCGCAGCCCGUGCCAGAUUCUGGUGAAUCUGCGAAUUCUGCUGUAUAUCAC, 0.2. The figure for UAACAGGGGGCUACAGCAGAAGCGUCCACGUCGCAGCCUCUGUCAGAUUCUGGUGAAUCUGCGAAUUCUGCUGUAUAUCUC is 0.54.

Consider UAACAGGGGGCUACAGCAGAAGCGUCCACGUCGCAGCCCCUGUCAGAUUCAGGUGAAUCUGCGAAUUCUGCUGUAUAUCAC, for which the self-cleavage is 1.04. To UAACAGGGGGCUACAGCAGAAGCGUUCACGUCGCAGCCCCUGUCAGAUUCUGGUGAGUCUGCGAAUUCUGCUGUACAUCUC belongs 1.27; to UAACAGGGGGCUACAGCAGAAGCGCUCACGUCGCGGCCCCGGUCGGAUUCUGGAGAAUCUGCGAAUUCUGCUGUAUAUCUC, 0.1. The figure for UAACAGGGGGCUACAGCAGAAGCGCUCACGUCGCAGCCCCUGUCAGAUUCUGGUGAAUCUGCGAAUUCAGCUGUAUAUCUC is 0.14. Consider UAACAGGGGGCUACAGCAGAAGCGUUCACGCCGCAGCCCCUGUCAGAUUCUGGUGAAUCUGCGAAUACUGCCGUAUAUCUC, for which the self-cleavage stood at 0.63. Consider UAACAGGGGGCUACAGCAGAAGCGUCCACGUCGCAGCCCCUGUCAGAUUCUGGUGAAUCUGCGAAUUCUGCUGUGUAUCUC, for which the self-cleavage turned out to be 0.95. The figure for UAACAGGGGGCUACAGCAGAAGCGUUCACGUCGCAGCCCCCGUCAGUUUCUGGUGAAUCUGCGAAUUCUGCCGUGUAUCUC is 0.34; for UAACAGGGGGCUACAGCAGAAGCGCUCACGACGCAGCCCCUGUCAGAUUCAGGUGAAUCUGCGAACUCUGCUGUAUAUCUC it is 0.22.

For the variant UAACAGGGGGCUACAGUAGAAGCGUUCACGUCGCAGCCCCUGUCAGAUUCUGGUAAUUCUGCGAAUUCUGCUGUAUACCUC, the self-cleavage amounted to 0.31.

UAACAGGGGGCUACAGCAGAAGCGUUCACGUCGCAGCCCCUGCCAGAUUCUGGCGAAUCUGCGAAUACUGCUGUAUAUCUC: the self-cleavage worked out at 0.13.

As to UAACAGGGGGCUACAGCAGAAGCGUUCACGUUGCAGCCCCUGUCAGAUCCCGGUGAAUCUGCGAAUUCUACUGUGUAUCUC, the self-cleavage worked out at 0.06. The figure for UAACAGGGGGCUAUAGCAGAAGCGUUCACGUCGCAGCCCCUGCCAGAUUCUGGUGGAUCUGCGAAUUCUGCUGUAUAUCUC is 1.05; for UAACAGGGGGCUACAGCAGAAGCGCUCACGUCGCAGCCCCUGUCAGACUCUGGUGAAUCUGCGAAUUCCGCCGUGUAUCUC it is 0.04; for UAACAGGGGGCUACAGCAGAAGGGUUCACGUCCCAGCCCCUGUCAGAUUCUGGUGAAUCUGAGAAUUCUGCUGUAUAUCUC it is 0.21. To UAACAGGGGGCUACAGCAGAAGCGUUCACGUCGCAGCCCCUGUCAGAUUCUGGUGUAUCUGCGCAUUCUGCUGUAUAUCUC belongs 0.16. As to UAACAGGGGGCUACAGCAGAAGCGUUCACACCGCUGCCCCUGUCAGAUUCUGGUGAAUCUGCGAAUUCCGCUGUAUAUCUC, the self-cleavage is 0.1. To UAACAGGGGGCUACAGCAGAAGCGUUCACAUCGCAGCCCCUGUCAGGUUCUGGUGAAUCUGCGAAUUCUGCUGUAUUUCUC belongs 0.19.

As to UAACAGGGGGCUACAGCAGAAGCGUUCACGUUGCUGCCCCUGUCAGAUUCUGGUGAACCUGCGAACUCCGCUGUAUAUCUC, the self-cleavage was found to be 0.05.

For the origin of these results see the RNAGym collection of RNA variant scans (doi:10.1093/nar/gkz1192).
